Experimental data taken from PubChem BioAssay (Tox21).
Inconclusive means that the source gave no clear call. Such entries were picked first, then a sample of the others. Potencies beside an inconclusive call are fits to weak or partial responses and may not hold up. Active and inactive are the calls of the source. Calls follow the shape of the dose curve; as a rule, active = well fitted cell-killing curve with a large enough effect in the repeat runs; inconclusive = weak or mixed curves, or effect the other way; inactive = flat fitted curve, though single readings scatter.

experiment: cAMP Responsive Elements (CRE) small molecule antagonists, cell-based qHTS assay: qHTS cell viability counter screen (AID 2060913); conditions: CRE-bla HEK293T viability, CellTiter-Glo luminescence, 5 h; series mostly up to 92.4 µM; also: nearly all actives have a fitted effect of over 40% in size
Procedure, shortened: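 CRE-bla HEK293T cells (2,000/well, 18 h) given compound plus NKH477 0.25 uM final for 3 h at 37C; viability counter-screen by CellTiter-Glo luminescence in same wells after 30 min.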
Potency is read from the fitted curve at half-maximal effect; tags tell the direction and shape of the fitted curve.

| Structure (SMILES) | Potency |
| --- | --- |
| COc1cc(OC)c(C(=O)CCCN2CCCC2)c(OC)c1 | inactive |
| O=S(O)(O)=S | inconclusive: 0.0586 µM [cytotoxic, single point] |
| C[C@@H](NCCCc1cccc(C(F)(F)F)c1)c1cccc2ccccc12 | inconclusive: 33.5 µM [cytotoxic, single point] |

experiment: cAMP Responsive Elements (CRE) small molecule agonists, cell-based qHTS assay: qHTS cell viability counter screen (AID 2060914); conditions: CRE-bla HEK293T viability, CellTiter-Glo luminescence, 5 h; series mostly up to 92.4 µM;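 also: viability read after 3 h of compound exposure; nearly all actives have a fitted effect of over 50% in size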
Procedure, shortened: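 CRE-bla HEK293T cells in 10% dialyzed FBS medium were exposed to compounds for 3 h at 37C after 18 h plating. CellTiter-Glo was then added in the same wells, and luminescence was read after 30 min at room temperature.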

| Structure (SMILES) | Potency |
| --- | --- |
| Oc1cc2ccccc2c2ccccc12 | active: 13.7 µM |
| CCCCCCCCCCCCCCCCN | inactive |
| Cc1cc2c(C(C)C)c(O)c(O)c(C=O)c2c(O)c1-c1c(C)cc2c(C(C)C)c(O)c(O)c(C=O)c2c1O | active: 26.6 µM |
| O=c1cc(-c2ccccc2)oc2ccc3ccccc3c12 | active: 21.7 µM |
| CCN(CC)c1ccc(C(=C2C=CC(=[N+](CC)CC)C=C2)c2ccc(S(=O)(=O)O)cc2S(=O)(=O)[O-])cc1 | inconclusive: 9.69 µM [cytotoxic] |
| CC(C)c1ccc2sc3ccccc3c(=O)c2c1 | inconclusive: 68.6 µM [cytotoxic, single point] |
| CCN=C1C=CC(=C(c2ccc(N(CC)CC)cc2)c2ccc(N(CC)CC)cc2)c2ccccc21 | active: 30.5 µM |
